{
  "source": "paper PMC9911596",
  "about": "(Nature Communications, 2023)",
  "biological_target": "T1, Vtc1/Vtc3/Vtc4 complex (VTC complex) (Saccharomyces cerevisiae, UniProt P47075+Q02725, P47075:R264A/P47075:R266A/P47075:E426N)",
  "T1 construct": "full-length subunits co-expressed in Expi293F; Vtc1 C-terminal HA, Vtc3 N-terminal 3xFlag, Vtc4 C-terminal 2xStrep; detergent-purified; 3:1:1 pentamer; with Vacuolar transporter chaperone complex subunit 1",
  "T1 sequence (P47075 1-721 R264A/R266A/E426N)": "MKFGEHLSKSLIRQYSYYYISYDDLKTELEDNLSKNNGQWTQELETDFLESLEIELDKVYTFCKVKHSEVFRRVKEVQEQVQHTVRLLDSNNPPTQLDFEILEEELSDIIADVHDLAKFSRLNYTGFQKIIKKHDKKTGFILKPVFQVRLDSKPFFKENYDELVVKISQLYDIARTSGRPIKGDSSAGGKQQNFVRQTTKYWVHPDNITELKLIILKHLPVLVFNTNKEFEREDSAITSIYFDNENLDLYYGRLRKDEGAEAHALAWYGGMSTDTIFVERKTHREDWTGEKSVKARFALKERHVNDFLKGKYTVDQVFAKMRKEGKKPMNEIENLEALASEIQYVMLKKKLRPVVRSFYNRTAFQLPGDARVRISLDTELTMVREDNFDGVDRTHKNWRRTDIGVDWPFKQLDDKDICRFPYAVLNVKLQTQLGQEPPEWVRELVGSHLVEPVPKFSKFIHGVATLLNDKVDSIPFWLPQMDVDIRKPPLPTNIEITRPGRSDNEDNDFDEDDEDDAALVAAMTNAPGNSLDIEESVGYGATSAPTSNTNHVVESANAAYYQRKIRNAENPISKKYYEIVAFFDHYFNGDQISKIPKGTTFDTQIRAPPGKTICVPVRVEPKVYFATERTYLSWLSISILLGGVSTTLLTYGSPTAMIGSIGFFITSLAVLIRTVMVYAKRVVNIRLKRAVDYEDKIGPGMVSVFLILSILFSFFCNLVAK",
  "T1 sequence (Q02725 1-835)": "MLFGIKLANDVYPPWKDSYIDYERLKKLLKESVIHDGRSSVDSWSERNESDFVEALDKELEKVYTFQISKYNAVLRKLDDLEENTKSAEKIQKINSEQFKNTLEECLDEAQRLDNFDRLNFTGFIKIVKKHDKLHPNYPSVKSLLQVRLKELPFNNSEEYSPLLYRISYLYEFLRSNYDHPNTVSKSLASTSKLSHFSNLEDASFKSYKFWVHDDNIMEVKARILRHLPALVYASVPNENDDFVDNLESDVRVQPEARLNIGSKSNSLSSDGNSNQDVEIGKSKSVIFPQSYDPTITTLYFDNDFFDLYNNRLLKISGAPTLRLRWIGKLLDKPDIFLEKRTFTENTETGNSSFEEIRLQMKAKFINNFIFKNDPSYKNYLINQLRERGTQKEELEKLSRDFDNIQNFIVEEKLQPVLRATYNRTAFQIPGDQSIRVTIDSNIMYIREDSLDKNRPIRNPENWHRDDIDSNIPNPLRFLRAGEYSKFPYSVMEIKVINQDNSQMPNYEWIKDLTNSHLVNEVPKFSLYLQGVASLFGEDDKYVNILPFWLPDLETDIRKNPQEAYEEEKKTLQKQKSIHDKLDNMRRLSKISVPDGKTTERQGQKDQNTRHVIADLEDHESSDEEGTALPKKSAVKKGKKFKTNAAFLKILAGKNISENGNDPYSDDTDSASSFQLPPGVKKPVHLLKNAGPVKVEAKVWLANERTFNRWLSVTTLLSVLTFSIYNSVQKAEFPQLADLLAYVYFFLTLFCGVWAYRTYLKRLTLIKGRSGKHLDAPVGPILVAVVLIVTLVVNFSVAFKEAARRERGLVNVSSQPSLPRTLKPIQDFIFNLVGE",
  "T1 sequence (P40046 2-129 partner)": "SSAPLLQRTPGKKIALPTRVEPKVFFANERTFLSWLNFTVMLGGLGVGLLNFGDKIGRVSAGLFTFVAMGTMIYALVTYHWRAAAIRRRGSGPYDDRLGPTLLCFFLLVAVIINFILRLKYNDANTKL",
  "test": "cryo-EM structure, […] Å",
  "conditions": "1 mM InsP6; pH 8.0; three sites: SPX of Vtc4, TTM Vtc3-TTM Vtc4 cleft, TTM Vtc4 tunnel; catalytically impaired complex",
  "data": [
    {"smiles": "O=P(O)(O)O[C@H]1[C@H](OP(=O)(O)O)[C@@H](OP(=O)(O)O)[C@H](OP(=O)(O)O)[C@@H](OP(=O)(O)O)[C@H]1OP(=O)(O)O", "note": "[InsP6]", "values": [
      {"measurement": "cryo-EM structure, 3.0 Å", "value": "Three InsP6 molecules were identified in the VTC complex structure"}
    ]}
  ]
}
